Source: PubChem BioAssay AID624170 (National Center for Advancing Translational Sciences (NCATS), 2012)
The campaign covered roughly 410,000 compounds. About 850 (0.21%) were called active. The inconclusive results got no clear call from the source; some entries with a clear call stand among them for comparison. Calls follow the shape of the dose curve; as a rule, active = well fitted inhibition curve with a large enough effect; inconclusive = small, poorly fitted or top-dose-only effect, or another doubt; inactive = no such curve, though single readings can be large or run the other way. Potencies of inconclusive entries are left out as doubtful fits.
Potency is read from the fitted curve at half-maximal effect; tags tell the direction and shape of the fitted curve.

What follows are molecules tested against Glutaminase kidney isoform, mitochondrial (Homo sapiens) (UniProt O94925) (assay: qHTS for Inhibitors of Glutaminase (GLS)). Conditions: GLS enzymatic activity, qHTS titration; series mostly up to 45.5 µM.
Chain of UniProt O94925 (O94925 whole entry, looked up, canonical isoform): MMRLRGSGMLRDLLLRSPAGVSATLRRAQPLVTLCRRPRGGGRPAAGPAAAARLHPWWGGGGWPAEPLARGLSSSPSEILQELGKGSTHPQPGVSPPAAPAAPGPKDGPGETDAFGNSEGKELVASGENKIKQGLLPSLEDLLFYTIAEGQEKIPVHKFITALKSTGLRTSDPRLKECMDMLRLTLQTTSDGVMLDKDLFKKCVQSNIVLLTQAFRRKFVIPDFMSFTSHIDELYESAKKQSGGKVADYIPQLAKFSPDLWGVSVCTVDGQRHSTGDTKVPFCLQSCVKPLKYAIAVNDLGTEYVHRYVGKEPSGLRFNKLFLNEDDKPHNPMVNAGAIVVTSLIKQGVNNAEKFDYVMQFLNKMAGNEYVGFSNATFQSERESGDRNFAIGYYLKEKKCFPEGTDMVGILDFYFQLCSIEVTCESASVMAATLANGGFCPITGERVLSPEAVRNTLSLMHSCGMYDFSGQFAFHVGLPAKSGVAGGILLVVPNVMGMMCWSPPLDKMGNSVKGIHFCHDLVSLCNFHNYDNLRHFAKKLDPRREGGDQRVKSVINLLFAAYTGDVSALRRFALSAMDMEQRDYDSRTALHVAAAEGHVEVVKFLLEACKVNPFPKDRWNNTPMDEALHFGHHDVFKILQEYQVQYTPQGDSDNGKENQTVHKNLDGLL
Outline: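 hKGA in 45 mM KH2PO4 pH 8.2, 0.02% Tween-20 with pin-transferred compounds; 1 mM L-glutamine (stock) plus glutamate oxidase/HRP/Amplex Red coupling added. Fluorescence read initially and after 30 min at RT.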
For `Cc1cccc(OCC(=O)Nc2ccc(N3CCCC3)cc2)c1C`, the Potency was inconclusive [inhibitor, single point]. In the case of `CC(=O)C(=Cc1ccc(-c2ccccc2)cc1)C(=O)c1ccccc1`, the Potency is reported as inconclusive [inhibitor, full curve]. With `Cc1cccc(C)c1NC(=O)Cn1cc(S(=O)(=O)Cc2ccc(F)cc2)c2ccccc21` the Potency was inconclusive [inhibitor, partial curve, poor fit]. With `COc1ccc(NCC(=O)N/N=C/C=C/c2ccccc2[N+](=O)[O-])cc1` the Potency was inconclusive [inhibitor, single point]. `COc1ccc(NC(C)=O)cc1S(=O)(=O)Nc1ccc(OCc2ccccc2)cc1` was tested, and the Potency was inconclusive [inhibitor, single point]. With `Cc1cccc(OCC(=O)Nc2ccc(N3CCN(S(C)(=O)=O)CC3)cc2)c1C` the Potency was inconclusive [inhibitor, single point]. `O=C(NC(=S)Nc1ccccc1N1CCCC1)c1ccc(-c2cccc([N+](=O)[O-])c2)o1` was tested, and the Potency was “inactive”. With `CC(C)c1ccc(N=c2c([N+](=O)[O-])nn(-c3ccc4c(c3)OCCO4)n2O)cc1` the Potency was active: 11.2 µM. For `COCCNC(=O)CSc1nnc(-c2ccc(OC)c(OC)c2)c(-c2ccc(OC)c(OC)c2)n1`, the Potency was inconclusive [inhibitor, partial curve]. `Cc1ccc(-c2[nH]c(=O)n3ccncc23)s1` was tested, and the Potency was inconclusive [inhibitor, partial curve]. `Cc1cccc(Oc2nc3c(C)cccn3c(=O)c2/C=C(\C#N)c2nc3ccccc3s2)c1` was tested, and the Potency was “inactive”. With `N#Cc1ccc2c(=O)n(-c3ccccc3)sc2c1` the Potency was inconclusive [inhibitor, single point]. `CCOc1cc(/C=N/Nc2ncnc(Cl)c2N)ccc1O` was tested, and the Potency was “inactive”. For `Cc1ccc(NNC(=O)c2cc(C(C)(C)C)nn2Cc2ccccc2)cc1`, the Potency was inconclusive [inhibitor, single point]. For `CC(C)NC(=O)C(=O)NCCc1ccc(Cl)cc1`, the Potency was “inactive”. With `CCOC(=O)C1=C(C)N=c2sc(=Cc3ccc(OCC(=O)O)cc3)c(=O)n2C1c1ccc(SC)cc1` (stereo not drawn) the Potency was inconclusive [inhibitor, single point]. `CNC(=S)NNC(=O)c1cccn(Cc2ccc(Cl)c(Cl)c2)c1=O` was tested, and the Potency was inconclusive [inhibitor, partial curve]. With `Cc1cccc(-n2c(-c3csc(C)c3)n[nH]c2=S)c1` the Potency was inconclusive [inhibitor, full curve]. With `CCCCNC(=O)c1sc(=S)n(-c2ccccc2OC)c1N` the Potency was inconclusive [inhibitor, partial curve, poor fit]. With `CCOC(=O)c1ccc(NC(=O)c2nc(S(=O)(=O)Cc3ccccc3)ncc2Cl)cc1` the Potency was inconclusive [inhibitor, partial curve]. `Cc1cc(C)n2nc3nc(N4CCCCC4)nc(-c4ccco4)c3c2n1` was tested, and the Potency was inconclusive [inhibitor, single point]. With `CC(=O)C1=C(C)NC(SCC(N)=O)=C(C#N)C1CC(C)C` (stereo not drawn) the Potency was “inactive”. `COc1ccc(CCNC(=S)NCCc2ccc(OC)c(OC)c2)cc1OC` was tested, and the Potency was inconclusive [inhibitor, partial curve, poor fit]. For `COc1ccc(S(=O)(=O)N2CCN3CCCC3C2)cc1` (stereo not drawn), the Potency was “inactive”. In the case of `CCCCOc1cccc(C(=O)N(Cc2ccc(Cl)cc2)C2CCS(=O)(=O)C2)c1` (stereo not drawn), the Potency is reported as “inactive”. `CCS(=O)(=O)c1ccc(O)c(NC(=O)/C=C/c2ccccc2)c1` was tested, and the Potency was “inactive”. `CC1(C)O[C@@H]2[C@H](O1)[C@@H](CO)O[C@H]2n1cnc2c(=O)[nH]cnc21` was tested, and the Potency was “inactive”. In the case of `C=C1CCN([C@@H](CC(C)C)C(=O)NCc2ccc(Cl)cc2)S(=O)(=O)c2ccccc21`, the Potency is reported as “inactive”. In the case of `COc1ccc(C(=O)Nn2c(SCc3cccc([N+](=O)[O-])c3)nc3ccccc3c2=O)cc1`, the Potency is reported as “inactive”. For `O=C(O)COc1ccccc1/C=N/NC(=O)CSc1nc2ccccc2n1Cc1ccccc1Cl`, the Potency was inconclusive [inhibitor, single point]. `CCCCNC(=O)CSc1nc2n[nH]c(C)c2c(=N)n1-c1ccccc1CC` was tested, and the Potency was inconclusive [inhibitor, single point]. In the case of `COc1ccc(NC(=O)CCCS(=O)(=O)c2nc(-c3ccc(OC)c(OC)c3)cc(C(F)(F)F)n2)cc1OC`, the Potency is reported as “inactive”. `O=C(CN1CCOCC1)Nc1ccccc1C(=O)O` was tested, and the Potency was “inactive”. For `Cc1nn2c(N3CCN(CCO)CC3)c3c(nc2c1-c1ccccc1)CCCC3`, the Potency was “inactive”. In the case of `c1cc2c(cc1NC1CCCCCC1)OCO2`, the Potency is reported as inconclusive [inhibitor, single point]. For `COC(=O)NC(=S)Nc1ccc(Oc2ccc(Cl)cc2Cl)c(Cl)c1`, the Potency was inconclusive [inhibitor, single point]. In the case of `Cc1nc2c(C#N)cnn2c2c1CCNN2C`, the Potency is reported as inconclusive [inhibitor, single point]. With `CC1(C)S[C@H]2C(NC(=O)[C@@H](N)c3ccc(O)cc3)C(=O)N2[C@@H]1C(=O)O` (stereo partly drawn) the Potency was active: 14.1 µM. In the case of `Cc1ccc(/C=N/NC(=O)C[n+]2ccccc2)o1`, the Potency is reported as “inactive”. `O=S(=O)(c1ccccc1F)N1CCN(C(=S)NCc2ccccc2)CC1` was tested, and the Potency was inconclusive [inhibitor, full curve]. `COC(=O)c1ccc2c(=O)n(-c3ccc(OC)cc3)c(=S)[nH]c2c1` was tested, and the Potency was “inactive”. For `O=C(c1ccncc1)N1N=C(c2ccc(Cl)cc2)CC1c1ccccc1O` (stereo not drawn), the Potency was inconclusive [inhibitor, single point]. For `Cc1c(/C=N/O)c2ccccn2c1C(=O)c1ccc(F)cc1`, the Potency was inconclusive [inhibitor, single point]. For `Cc1cc(NC(c2cccnc2)c2ccc3cccnc3c2O)no1` (stereo not drawn), the Potency was “inactive”. With `Cc1ccc(C(=O)N/C(=C/c2ccc(N(C)C)cc2)C(=O)NCC2CCCO2)cc1` (stereo not drawn) the Potency was inconclusive [inhibitor, partial curve]. For `Oc1ccc(-c2[nH]ncc2-c2cnn(-c3ccccc3)c2)c(O)c1`, the Potency was inconclusive [inhibitor, single point]. For `Cc1sc(NC(=O)c2ccccc2)c(C(=O)c2ccccc2)c1C`, the Potency was “inactive”. With `Cc1c(N/C=C/C(=O)c2cccs2)c(=O)n(-c2ccccc2)n1C` the Potency was inconclusive [inhibitor, single point]. In the case of `CSc1ccccc1NC(=O)c1cc(-c2ccc3c(c2)OCO3)on1`, the Potency is reported as “inactive”. With `CC(=O)c1cnc(-c2ccccn2)s1` the Potency was inconclusive [inhibitor, single point]. In the case of `CCOC(=O)Nc1ccc2c(c1)C(=NNC(N)=S)c1ccccc1-2`, the Potency is reported as inconclusive [inhibitor, partial curve]. In the case of `CC(C)Oc1ccc(CNC(=O)c2ccc(CS(=O)Cc3ccccc3Cl)o2)cc1` (stereo not drawn), the Potency is reported as “inactive”. For `CCOC(=O)c1c(NC(=O)CSc2cn(CCNC(=O)c3ccc(OC)c(OC)c3)c3ccccc23)sc2c1CCC2`, the Potency was “inactive”. For `COC(=O)C1CCN(Cc2ccc(OCCCN3CCN(c4ccc([N+](=O)[O-])cc4)CC3)cc2)CC1`, the Potency was inconclusive [inhibitor, partial curve, poor fit]. With `CS(=O)(=O)N1CCN(c2ccc(NC(=O)C(c3ccccc3)c3ccccc3)cc2)CC1` the Potency was “inactive”. For `Cc1ccccc1Nc1c(-c2ccc(Cl)s2)nc2c(C)cccn12`, the Potency was “inactive”. For `CCCCN1C(C(=O)Nc2ncccn2)=C(O)c2ccccc2S1(=O)=O`, the Potency was inconclusive [inhibitor, single point]. In the case of `COc1cc(NC(=S)NCc2cccnc2)cc(OC)c1OC`, the Potency is reported as “inactive”. In the case of `CCOC(=O)c1cnn(-c2ccc(NS(=O)(=O)c3ccc(Cl)cc3)cc2)c1C(F)(F)F`, the Potency is reported as inconclusive [inhibitor, partial curve]. In the case of `COc1cccc(/C=C/C(=O)c2cccc([N+](=O)[O-])c2)c1`, the Potency is reported as inconclusive [inhibitor, partial curve, poor fit]. `O=c1c2nccnc2[nH]c(=S)n1Cc1ccccc1Cl` was tested, and the Potency was active: 10 µM. For `CC1=C/C(=N\NC(=S)Nc2cccnc2)CC(C)(C)C1`, the Potency was inconclusive [inhibitor, partial curve, poor fit]. In the case of `O/N=C(\Cc1cscn1)c1ccc(O)cc1O`, the Potency is reported as inconclusive [inhibitor, single point]. `COc1ccc(CCN(C)Cc2ccc(C(=O)Nc3ccccc3)cc2)cc1OC` was tested, and the Potency was “inactive”. `O=C(CCSCc1cccc(F)c1)NCc1ccc(F)cc1` was tested, and the Potency was inconclusive [inhibitor, single point]. With `C=CCNC(=O)c1ccc2nccnc2c1` the Potency was inconclusive [inhibitor, single point]. `CCc1ccc(-c2nc3cc(NC(=O)c4cc5ccccc5cc4OC)ccc3o2)cc1` was tested, and the Potency was “inactive”. `Cc1ccc2[nH]c(CN3CCC(CO)(CC4CCCCO4)CC3)c(C)c2c1` (stereo not drawn) was tested, and the Potency was inconclusive [inhibitor, single point]. In the case of `O=CNc1c(Cl)cc2c(c1Cl)Cc1cc([N+](=O)[O-])ccc1-2`, the Potency is reported as “inactive”. For `O=C(NCCCl)NNC(=O)c1cc2ccccc2cc1O`, the Potency was inconclusive [inhibitor, single point]. With `O=C(Nc1ccccc1)N(CCCN1CCOCC1)Cc1cc2cc3c(cc2[nH]c1=O)OCCO3` the Potency was “inactive”. With `CCc1sc(C(C2C(=O)CC(C)(C)CC2=O)C2C(=O)CC(C)(C)CC2=O)cc1[N+](=O)[O-]` the Potency was active: 7.08 µM. `CCOc1ccc(N2CC(C)Cn3c2nc2c3c(=O)n(CC(=O)O)c(=O)n2C)cc1` (stereo not drawn) was tested, and the Potency was inconclusive [inhibitor, single point].
